Laboratory results taken from PubChem BioAssay (NCATS).
“And” between values parts separate entries of the source, which are not always exact repeats. Identical values can stand only once. The inconclusive results got no clear call from the source; some entries with a clear call stand among them for comparison. For some of these results: Potencies beside an inconclusive call are fits to weak or partial responses and may not hold up. For some of these results: A note “side channel” means that the fit belongs to a control or component signal, not to the main read-out. The source made the active and inactive calls. Unless noted, the call rests on the fitted dose curve; in most records, active means well fitted curve in the direction sought with a large enough effect; inconclusive means small, poorly fitted or top-dose-only effect, or another doubt; inactive means no such curve, though single readings can be large; an effect the other way counts as inactive or inconclusive.

Assays:
[1] = MultiTox-Fluor Cytotoxicity Assay - LYMP1-002 - Dead Cells (AID 960); conditions: LYMP1-002 lymphoblastoid cells, dead-cell protease fluorescence; cytotoxicity (dead cells): at 46.1 µM (top of the series); further: potency means the concentration at half of the fitted maximal effect; nearly all actives have a fitted effect of over 60% in size
Outline: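 Cells were plated, rested 5 hr, then treated with compound dilution series for 16 hr at 37 C. After adding substrate reagent and 60 min at room temperature, dead-cell protease fluorescence gave concentration-response curves fitted by the Hill equation.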

[2] = Cell Viability - LYMP2-019 (AID 973); further: nearly all actives have a fitted effect of over 55% in size; further: potency means the concentration at half of the fitted maximal effect;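 on activity change, negative = cytotoxicity: 0% = DMSO alone and full effect = 92 µM tetraoctylammonium bromide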
Outline: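 Cytotoxicity is scored as a concentration-dependent drop in cellular ATP after cells (2500/well) receive compound for 24 hr at 37 C. Tetraoctylammonium bromide serves as positive control.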

[3] = target: Bile acid receptor (Homo sapiens) (UniProt Q96RI1); assay: qHTS assay for small molecule agonists of farnesoid X receptor signaling (AID 588527; calls by dose curve; further: potency means the concentration at half of the fitted maximal effect;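 on activation: 0% = vehicle basal and 100% = reference agonist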); conditions: HEK293T FXR-UAS-bla, beta-lactamase ratio, 16 h; activation: active compounds read high
Outline: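 Quantitative HTS used FXR-UAS-bla HEK293T cells with 16 h compound incubation at 37 C. EC50 values came from concentration-response curves normalized to chenodeoxycholic acid.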

[4] = target: Peroxisome proliferator-activated receptor gamma (Homo sapiens) (UniProt P37231); assay: qHTS assay for small molecule antagonists of peroxisome proliferator-activated receptor gamma signaling (AID 588537; active means well fitted inhibition curve with a large enough effect in the signal ratio, with a control signal flat, not every such curve was filed as active; inconclusive means small, poorly fitted or top-dose-only effect, or effect the other way, or a change in a side signal; the % refers to the signal ratio;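 further: reporter cells co-stimulated with 50 nM rosiglitazone agonist during compound treatment; % of control where 0% means no effect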); conditions: HEK293 PPARg-UAS-bla, beta-lactamase ratio, antagonist mode
Outline: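 Fluorescence at 460 and 530 nm (405 nm excitation) reported beta-lactamase cleavage of CCF4 after 2 h room-temperature loading. HEK293 reporter cells in 1% charcoal/dextran-treated FBS had received compound and rosiglitazone for 16 h.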

[5] = target: Retinoic acid receptor RXR-alpha (Homo sapiens) (UniProt P19793); assay: qHTS assay for small molecule antagonists of retinoid X receptor alpha signaling (AID 588546; active means well fitted inhibition curve with a large enough effect in the signal ratio, with a control signal flat, not every such curve was filed as active; inconclusive means small, poorly fitted or top-dose-only effect, or effect the other way, or a change in a side signal; inactive means no such curve, though single readings can be large or run the other way; the % refers to the signal ratio;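 further: cells stimulated with 9-cis-retinoic acid as agonist; on the % scale 0 is the no-effect control and ±100 the full control effect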); conditions: HEK293T RXRa-UAS-bla, beta-lactamase ratio, antagonist mode
UniProt P19793, sequence (P19793 whole entry, looked up): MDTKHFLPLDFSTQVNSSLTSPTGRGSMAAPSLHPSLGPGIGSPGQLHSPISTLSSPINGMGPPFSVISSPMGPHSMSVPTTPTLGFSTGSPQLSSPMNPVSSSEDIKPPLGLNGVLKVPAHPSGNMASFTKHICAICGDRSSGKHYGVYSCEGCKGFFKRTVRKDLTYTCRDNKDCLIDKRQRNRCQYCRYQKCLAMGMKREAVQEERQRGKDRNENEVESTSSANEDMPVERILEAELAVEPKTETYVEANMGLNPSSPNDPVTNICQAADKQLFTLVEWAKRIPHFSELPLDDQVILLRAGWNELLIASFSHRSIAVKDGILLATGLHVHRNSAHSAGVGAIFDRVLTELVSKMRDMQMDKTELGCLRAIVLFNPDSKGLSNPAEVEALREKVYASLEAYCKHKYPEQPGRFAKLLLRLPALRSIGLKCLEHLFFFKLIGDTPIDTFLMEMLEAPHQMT
Outline: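 Beta-lactamase reporter inhibition, read as CCF4 fluorescence ratio (ex 405, em 460/530 nm) after 2 h at RT. HEK293T UAS-bla cells, 2500/well, were stimulated with 9-cis-RA at 500 or 100 nM final alongside test compound for 18 h at 37 C.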

[6] = qHTS assay for small molecule agonists of the antioxidant response element (ARE) signaling pathway (AID 651741; active means well fitted activation curve with a large enough effect in the signal ratio; inconclusive means small, poorly fitted or top-dose-only effect, or effect the other way, or a change in a side signal; the % refers to the signal ratio; further: % of control where 0% means no effect); conditions: HepG2 ARE-bla reporter, beta-lactamase FRET ratio, 16 h
Outline: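 Stably integrated ARE-beta-lactamase reporter HepG2 cells; 16 h compound incubation, 37 C; LiveBLAzer FRET substrate 2 h at room temperature; fluorescence intensity.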

[7] = qHTS assay to identify small molecules that stimulate interleukin-8 (IL-8) secretion (AID 651758; active means well fitted activation curve with a large enough effect in the signal ratio; inconclusive means small, poorly fitted or top-dose-only effect, or effect the other way, or a change in a side signal; the % refers to the signal ratio; further: 0% is about no effect); conditions: HTRF ratio (665/615); activation: at 92.2 µM (top of the series)
Outline: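 Compounds are added to THP-1 cells (2000 per well) and left 16 hrs at 37 C. A labeled anti-IL-8 antibody pair is then added, and IL-8 secretion is measured by time-resolved FRET after 1-3 hrs at room temperature.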

[8] = target: Glucocorticoid receptor (Homo sapiens) (UniProt P04150); assay: qHTS assay for small molecule antagonists of glucocorticoid receptor signaling (AID 588533; active means well fitted inhibition curve with a large enough effect in the signal ratio, with a control signal flat, not every such curve was filed as active; inconclusive means small, poorly fitted or top-dose-only effect, or effect the other way, or a change in a side signal; the % refers to the signal ratio;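 further: cells stimulated with 2 nM dexamethasone as agonist; on the % scale 0 is the no-effect control and ±100 the full control effect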); conditions: HeLa MMTV-bla, GRE beta-lactamase ratio, antagonist mode, 18 h; activity change, negative = inhibition: at 76.8 µM (top of the series)
[9] = target: Thyroid hormone receptor beta (Homo sapiens) (UniProt P10828); assay: qHTS assay for small molecule antagonists of thyroid hormone receptor beta signaling (AID 588547; active means well fitted inhibition curve with a large enough effect in the signal ratio, with a control signal flat, not every such curve was filed as active; inconclusive means small, poorly fitted or top-dose-only effect, or effect the other way, or a change in a side signal; the % refers to the signal ratio; further: potency means the concentration at half of the fitted maximal effect;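 on activity change % (negative = inhibition): cells stimulated with 0.4 nM T3 agonist during compound exposure; on the % scale 0 is the no-effect control and ±100 the full control effect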); conditions: TR-UAS-bla HEK293, beta-lactamase ratio, antagonist mode, 18 h
UniProt P10828, sequence (P10828 whole entry, looked up): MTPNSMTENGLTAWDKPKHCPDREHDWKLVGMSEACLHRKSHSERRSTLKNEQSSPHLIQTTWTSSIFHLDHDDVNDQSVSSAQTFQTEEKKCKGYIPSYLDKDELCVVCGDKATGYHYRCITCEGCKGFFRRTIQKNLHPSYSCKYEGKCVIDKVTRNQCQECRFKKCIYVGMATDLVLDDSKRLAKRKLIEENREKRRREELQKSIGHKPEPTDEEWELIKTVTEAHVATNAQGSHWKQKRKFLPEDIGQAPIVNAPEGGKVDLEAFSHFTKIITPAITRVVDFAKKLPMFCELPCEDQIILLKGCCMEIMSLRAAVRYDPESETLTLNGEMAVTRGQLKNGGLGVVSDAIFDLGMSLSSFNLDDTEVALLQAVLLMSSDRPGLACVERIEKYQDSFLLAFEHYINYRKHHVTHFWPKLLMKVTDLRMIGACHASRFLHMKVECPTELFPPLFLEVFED
Outline: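 TR-UAS-bla GripTite HEK293 cells in 2% charcoal/dextran FBS medium; compounds 0.59 nM to 92 uM with T3 at 0.4nM final, 18 h at 37 C. Beta-lactamase read by CCF4 fluorescence (460/530 nm); Hill fits gave IC50 and efficacy.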

[10] = target: Peroxisome proliferator-activated receptor delta (Homo sapiens) (UniProt Q03181); assay: qHTS assay for small molecule agonists of peroxisome proliferator-activated receptor delta signaling (AID 588534; calls by dose curve;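 further: 0% = DMSO basal wells and 100% = positive control agonist at 10 µM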); conditions: HEK293T PPARdelta-UAS-bla, beta-lactamase ratio, 18 h; activation: at 76.7 µM (top of the series) unless noted
UniProt Q03181, sequence (Q03181 whole entry, looked up): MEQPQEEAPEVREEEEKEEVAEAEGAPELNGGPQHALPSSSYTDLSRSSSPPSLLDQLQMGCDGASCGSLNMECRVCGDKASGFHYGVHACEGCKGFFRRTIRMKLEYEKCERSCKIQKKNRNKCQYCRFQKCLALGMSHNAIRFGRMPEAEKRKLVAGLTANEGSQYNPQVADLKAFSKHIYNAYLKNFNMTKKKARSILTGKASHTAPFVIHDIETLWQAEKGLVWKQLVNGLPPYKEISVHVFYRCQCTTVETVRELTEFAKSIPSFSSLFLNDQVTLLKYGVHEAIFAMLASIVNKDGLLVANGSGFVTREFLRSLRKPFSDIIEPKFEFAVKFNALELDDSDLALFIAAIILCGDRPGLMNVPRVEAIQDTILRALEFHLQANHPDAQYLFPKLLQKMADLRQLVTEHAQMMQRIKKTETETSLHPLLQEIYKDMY
Outline: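 Agonist-mode qHTS; reporter cells, 5 hrs 37 C pre-incubation; compound titration, 18 hrs 37 C; CCF4 dye, 2 hrs RT; fluorescence read. EC50/efficacy via Hill fit.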

[11] = target: Peroxisome proliferator-activated receptor delta (Homo sapiens) (UniProt Q03181); assay: qHTS assay for small molecule antagonists of peroxisome proliferator-activated receptor delta signaling (AID 588535; active means well fitted inhibition curve with a large enough effect in the signal ratio, with a control signal flat, not every such curve was filed as active; inconclusive means small, poorly fitted or top-dose-only effect, or effect the other way, or a change in a side signal; inactive means no such curve, though single readings can be large or run the other way; the % refers to the signal ratio; further: potency means the concentration at half of the fitted maximal effect); conditions: HEK293T PPARd-UAS-bla, beta-lactamase FRET ratio, 18 h; activity change, negative = inhibition: at 76.7 µM (top of the series) unless noted
Outline: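 Fluorescence from CCF4-loaded GeneBLAzer PPAR-delta-UAS-bla HEK293T cells (2 hrs RT loading) quantified reporter inhibition after an 18 hr, 37 C compound exposure across a titration.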

[12] = target: Vitamin D3 receptor (Homo sapiens) (UniProt P11473); assay: qHTS assay for small molecule antagonists of vitamin D receptor signaling (AID 588541; calls by dose curve;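 further: receptor activated by calcitriol during compound treatment; on the % scale 0 is the no-effect control and ±100 the full control effect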); conditions: HEK293T VDR-UAS-bla, beta-lactamase ratio, antagonist mode; activity change, negative = inhibition: at 76.7 µM (top of the series)
UniProt P11473, sequence (P11473 whole entry, looked up): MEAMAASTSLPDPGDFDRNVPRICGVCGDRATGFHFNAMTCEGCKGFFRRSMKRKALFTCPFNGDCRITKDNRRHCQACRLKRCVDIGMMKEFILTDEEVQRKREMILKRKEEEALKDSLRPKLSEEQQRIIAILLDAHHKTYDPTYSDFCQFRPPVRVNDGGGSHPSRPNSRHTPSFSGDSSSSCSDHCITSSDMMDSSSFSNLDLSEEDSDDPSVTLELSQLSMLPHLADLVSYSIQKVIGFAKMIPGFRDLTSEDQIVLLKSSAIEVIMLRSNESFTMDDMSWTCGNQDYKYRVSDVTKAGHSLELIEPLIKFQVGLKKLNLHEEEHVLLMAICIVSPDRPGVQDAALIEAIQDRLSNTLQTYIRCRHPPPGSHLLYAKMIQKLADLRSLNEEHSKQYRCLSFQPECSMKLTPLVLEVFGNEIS

[13] = target: Retinoic acid receptor RXR-alpha (Homo sapiens) (UniProt P19793); assay: qHTS assay for small molecule agonists of retinoid X receptor alpha signaling (AID 588544; calls by dose curve;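 further: 0% = DMSO basal wells and 100% = reference agonist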); conditions: HEK293T RXRa-UAS-bla, beta-lactamase reporter, 18 h; activation: at 76.7 µM (top of the series)
[14] = Cell Viability - LYMP2-001 (AID 921); conditions: LYMP2-001 lymphoblastoid cell viability; activity change, negative = cytotoxic: at 92.2 µM (top of the series); further: potency means the concentration at half of the fitted maximal effect; nearly all actives have a fitted effect of over 70% in size
Outline: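 Cellular ATP loss read by luciferase luminescence after 24 h compound exposure at 37 C in complete medium. LYMP2-001 lymphoblastoid cells, 2500/well; qHTS concentration-response data fitted with Hill equation for AC50.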

[15] = MultiTox-Fluor Cytotoxicity Assay - LYMP1-001 - Live Cells (AID 947);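 further: 0% = DMSO only and full inhibition = tetraoctylammonium bromide control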
[16] = Cell Viability - LYMP2-021 (AID 974);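 further: potency means the concentration at half of the fitted maximal effect; compound exposure lasts 24 hours at 37 °C; nearly all actives have a fitted effect of over 55% in size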
Outline: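 Loss of cellular ATP, measured with a luciferase-based CellTiter-Glo readout, serves as the toxicity signal in human lymphoblastoid cells treated for 24 hours at 37 C. Potency is reported as AC50 from a standard Hill model.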

[17] = Cell Viability - LYMP2-010 (AID 981);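 further: potency means the concentration at half of the fitted maximal effect; cells exposed to compound for 24 hours at 37 °C; nearly all actives have a fitted effect of over 55% in size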
Outline: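 Steps: seed 2500 LYMP2-010 cells per well; incubate 5 hr at 37 C; add compound; incubate 24 hr at 37 C; add CellTiter-Glo, wait 30 min at room temperature; read luminescence. Concentration-response fitted to Hill equation for AC50.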

[18] = Cell Viability - LYMP2-012 (AID 982); conditions: LYMP2-012 lymphoblastoid cell viability qHTS; activity change, negative = cytotoxicity: at 92.2 µM (top of the series);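 further: cellular ATP by luciferase luminescence where a drop means cytotoxicity; potency means the concentration at half of the fitted maximal effect; cells exposed to compound for one day before reading; nearly all actives have a fitted effect of over 55% in size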
[19] = Cell Viability - LYMP2-014 (AID 983); further: potency means the concentration at half of the fitted maximal effect; nearly all actives have a fitted effect of over 50% in size
Outline: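 Cells are plated at 2500/well and left 5 hr at 37 C. Compounds are added across a concentration range and incubated 24 hr at 37 C in complete medium. CellTiter-Glo is added, and luminescence is read after 30 min at room temperature.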

[20] = Cell Viability - LYMP2-018 (AID 985);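 further: potency means the concentration at half of the fitted maximal effect; compound exposure lasted 24 hr at 37 °C; nearly all actives have a fitted effect of over 50% in size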
Outline: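 Seed 2500 lymphoblastoid cells per well, incubate 5 hr at 37 C, add compound and incubate 24 hr at 37 C, add CellTiter-Glo, wait 30 min at room temperature, then read luminescence.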

[21] = Cell Viability - LYMP2-020 (AID 986); conditions: activity change, negative = viability loss: at 92.2 µM (top of the series)
Outline: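 Seed 2500 cells per well and incubate 5 hr at 37 C. Add compounds at a concentration series and incubate 24 hr at 37 C. Add CellTiter-Glo, wait 30 min at RT, read luminescence, and fit a Hill curve for AC50.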

[22] = Cell Viability - LYMP2-022 (AID 987)
Outline: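 Cells were seeded at 2500 per well, rested 5 hr at 37 C, and treated with titrated compounds for 24 hr at 37 C. Cellular ATP was then quantified by luciferase luminescence, and AC50 values were derived from Hill-modelled concentration-response curves.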

[23] = Cell Viability - LYMP2-024 (AID 988); further: potency means the concentration at half of the fitted maximal effect; nearly all actives have a fitted effect of over 60% in size
Outline: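 qHTS cytotoxicity, human lymphoblastoid line, complete medium; 24 h cpd treatment, 37 C; CellTiter-Glo ATP luminescence readout; tetraoctylammonium bromide positive control; AC50 via Hill fit.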

[24] = Cell Viability - LYMP2-026 (AID 989); further: potency means the concentration at half of the fitted maximal effect; nearly all actives have a fitted effect of over 50% in size
Outline: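 Cells are seeded at 2500 per well and held 5 hr at 37 C. Compounds are added in concentration series for 24 hr, then CellTiter-Glo reagent is applied and luminescence read.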

[25] = target: Glucocorticoid receptor (Homo sapiens) (UniProt P04150); assay: qHTS assay for small molecule agonists of glucocorticoid receptor signaling (AID 588532; active means well fitted curve in the direction sought with a large enough effect in the signal ratio, with a control signal flat; inconclusive means small, poorly fitted or top-dose-only effect, or a change in a side signal; inactive means no such curve, though single readings can be large or run the other way; the % refers to the signal ratio; further: potency means the concentration at half of the fitted maximal effect); conditions: HeLa MMTV-bla, beta-lactamase ratio, agonist, 18 h; activation: active compounds read high, percent of dexamethasone control, DMSO zero
Outline: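 HeLa GRE-bla reporter cells; 18 h compound exposure at 37 C; 2 h CCF4 loading at room temperature; fluorescence at 460 and 530 nm; EC50 by Hill equation.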

[26] = target: Thyroid hormone receptor beta (Homo sapiens) (UniProt P10828); assay: qHTS assay for small molecule agonists of thyroid hormone receptor beta signaling (AID 588545; calls by dose curve); conditions: TR-UAS-bla GripTite HEK 293, beta-lactamase ratio, agonist mode, 18 h; activation: at 76.7 µM, percent of T3 response, DMSO as zero
Outline: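 Agonist activity was read as beta-lactamase CCF4 fluorescence (405 ex, 460/530 em), scaled between DMSO (0%) and 10 nM T3 (100%), then Hill-fitted for EC50 and efficacy. HEK 293 TR-UAS-bla cells in 2% charcoal/dextran FBS medium were exposed 18 h at 37 C.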

[27] = target: Tumor necrosis factor (Homo sapiens) (UniProt P01375); assay: qHTS assay to identify small molecules that stimulate Tumor Necrosis Factor-alpha (TNF-alpha) secretion (AID 651757; active means well fitted curve in the direction sought with a large enough effect in the signal ratio; inconclusive means small, poorly fitted or top-dose-only effect, or a change in a side signal; inactive means no such curve, though single readings can be large or run the other way; the % refers to the signal ratio; further: 0% is about no effect); conditions: Human cells, HTRF 665/615 ratio; activation (TNF-alpha secretion): at 92.2 µM (top of the series)
UniProt P01375, sequence (P01375 whole entry, looked up): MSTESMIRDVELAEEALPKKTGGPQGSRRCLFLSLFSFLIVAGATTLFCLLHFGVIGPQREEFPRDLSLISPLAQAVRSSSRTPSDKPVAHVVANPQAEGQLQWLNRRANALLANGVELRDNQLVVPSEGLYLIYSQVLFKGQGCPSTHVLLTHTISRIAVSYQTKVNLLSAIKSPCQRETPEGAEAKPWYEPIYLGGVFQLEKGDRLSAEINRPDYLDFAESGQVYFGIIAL
Outline: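 Human monocytic THP-1 cells are plated, treated with compound and held at 37 C for 17 hrs. Labeled anti-TNF-alpha antibody mixture is then added; after 3 hr at room temperature, TR-FRET signal reports secreted TNF-alpha.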

[28] = target: Peroxisome proliferator-activated receptor gamma (Homo sapiens) (UniProt P37231); assay: qHTS assay for small molecule agonists of peroxisome proliferator-activated receptor gamma signaling (AID 588536; active means well fitted curve in the direction sought with a large enough effect in the signal ratio, with a control signal flat, not every such curve was filed as active; inconclusive means small, poorly fitted or top-dose-only effect, or effect the other way, or a change in a side signal; inactive means no such curve, though single readings can be large or run the other way; the % refers to the signal ratio;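 further: 0% = DMSO basal wells and 100% = rosiglitazone at 2 µM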); conditions: HEK293 PPARg-UAS-bla, beta-lactamase ratio, 16 h; activation: at 76.7 µM (top of the series), percent of rosiglitazone response, DMSO as zero
Outline: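 Using GeneBLAzer HEK293 cells, response was quantified by CCF4 fluorescence and normalized between basal DMSO (0%) and rosiglitazone 2 uM (100%); curves yielded half-maximal stimulation concentration and efficacy.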

[29] = activity, negative = inhibition: at 76.8 µM (top of the series) unless noted
[30] = activation: at 96 µM (top of the series) unless noted
Tags describe the fitted curve by direction and shape or compound fluorescence and quenching.

CC1(C)CC(N=C=O)CC(C)(CN=C=O)C1 (stereo not drawn)
inconclusive: Potency [1] 31.6 µM [cytotoxic, single point] | activity, negative = inhibition [4, 29] 12.9% | activation [6, 30] 13.4% | activation [7] -7.68%
inactive: Potency [2] | activation [3] -0.574% and 2.35% | activity, negative = inhibition ([4]; at 76.8 µM (top of the series)) -0.713% | max response [5] 12.5% and -8% | activation ([6]; at 96 µM (top of the series)) 1.7%

S=C(S)NCCNC(=S)S
inactive: Potency [8]

CCCCCCC(C)(C)S
inactive: Potency [6, 30]
inconclusive: Potency [3] 0.0071 µM [side channel, falling, full curve, poor fit] | Potency [9] 12.6 µM [cytotoxic, side channel, partial curve, poor fit]

COC(=O)CSc1cc(N=c2sc(=O)n3n2CCCC3)c(F)cc1Cl
inactive: Potency [8] | Potency [10] | Potency [4, 29] | Potency [12]
inconclusive: Potency [3] 11.2 µM [side channel, rising, full curve, poor fit] | Potency [11] 17.8 µM [fluorescent, side channel, partial curve, poor fit] | activation [13] -7.14% | max response [5] 8.97% | activity change % (negative = inhibition) [9] 4.05%

CC(C)(C)OC=O
inconclusive: Potency [14] 31.6 µM [cytotoxic, partial curve, poor fit] | Potency [2] 50.1 µM [cytotoxic, single point] | Potency [16] 79.4 µM [cytotoxic, single point] | Potency [17] 79.4 µM [cytotoxic, single point] | Potency [18] 79.4 µM [cytotoxic, single point] | Potency [19] 79.4 µM [cytotoxic, single point] | Potency [20] 79.4 µM [cytotoxic, single point] | Potency [21] 79.4 µM [cytotoxic, single point] | Potency [22] 79.4 µM [cytotoxic, single point] | Potency [23] 79.4 µM [cytotoxic, single point] | Potency [24] 79.4 µM [cytotoxic, single point] | Potency [25] 17.8 µM [side channel, rising, partial curve, poor fit] | activation [26] -9.18%
inactive: Potency [15] | Potency [8] | Potency [4, 29] | Potency [27] | Potency [7]

OC1CCC(C2CCCCC2)CC1 (stereo not drawn)
inconclusive: Potency [25] 20 µM [side channel, falling, full curve, poor fit]
inactive: activation [3] 0.637% | Potency [28]
